Values joined by “and” are separate entries in the source; they are usually repeats but may differ in a detail not shown here. Equal values may be shown once. Screen size: about 350,000 compounds; about 31,000 (8.9%) were called active. This list was built around the results that the source calls inconclusive (neither active nor inactive); the mix of calls is not that of the screen. Calls follow the shape of the dose curve; as a rule, active = well fitted inhibition curve with a large enough effect; inconclusive = small, poorly fitted or top-dose-only effect; inactive = no such curve, though single readings can be large or run the other way. A potency beside an inconclusive call is a rough fit, not a confirmed value. A structure can be active in one record and inactive in another.
The molecules below were run against Histone-lysine N-methyltransferase EHMT2 (Homo sapiens) (UniProt Q96KQ7) (assay: qHTS Assay for Inhibitors of Histone Lysine Methyltransferase G9a). Settings: G9a H3K9 monomethylation, AlphaScreen, 2 h; activity, negative = inhibition: at 59 µM (top of the series) unless noted.
In short: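 Step 1: enzyme (final 20 nM) with compound, 15 min RT. Step 2: substrate peptide 500 nM and SAM 20 uM, 2 h RT. Step 3: anti-H3K9me1 antibody and AlphaScreen beads, 10 min, then plate read.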
% is scaled to controls: 0 for no effect and ±100 for the full control effect; potency is read from the fitted curve at half-maximal effect; tags tell the direction and shape of the fitted curve.
Also: nearly all actives have a fitted effect of over 75% in size.

Chain of UniProt Q96KQ7 (Q96KQ7 whole entry, looked up): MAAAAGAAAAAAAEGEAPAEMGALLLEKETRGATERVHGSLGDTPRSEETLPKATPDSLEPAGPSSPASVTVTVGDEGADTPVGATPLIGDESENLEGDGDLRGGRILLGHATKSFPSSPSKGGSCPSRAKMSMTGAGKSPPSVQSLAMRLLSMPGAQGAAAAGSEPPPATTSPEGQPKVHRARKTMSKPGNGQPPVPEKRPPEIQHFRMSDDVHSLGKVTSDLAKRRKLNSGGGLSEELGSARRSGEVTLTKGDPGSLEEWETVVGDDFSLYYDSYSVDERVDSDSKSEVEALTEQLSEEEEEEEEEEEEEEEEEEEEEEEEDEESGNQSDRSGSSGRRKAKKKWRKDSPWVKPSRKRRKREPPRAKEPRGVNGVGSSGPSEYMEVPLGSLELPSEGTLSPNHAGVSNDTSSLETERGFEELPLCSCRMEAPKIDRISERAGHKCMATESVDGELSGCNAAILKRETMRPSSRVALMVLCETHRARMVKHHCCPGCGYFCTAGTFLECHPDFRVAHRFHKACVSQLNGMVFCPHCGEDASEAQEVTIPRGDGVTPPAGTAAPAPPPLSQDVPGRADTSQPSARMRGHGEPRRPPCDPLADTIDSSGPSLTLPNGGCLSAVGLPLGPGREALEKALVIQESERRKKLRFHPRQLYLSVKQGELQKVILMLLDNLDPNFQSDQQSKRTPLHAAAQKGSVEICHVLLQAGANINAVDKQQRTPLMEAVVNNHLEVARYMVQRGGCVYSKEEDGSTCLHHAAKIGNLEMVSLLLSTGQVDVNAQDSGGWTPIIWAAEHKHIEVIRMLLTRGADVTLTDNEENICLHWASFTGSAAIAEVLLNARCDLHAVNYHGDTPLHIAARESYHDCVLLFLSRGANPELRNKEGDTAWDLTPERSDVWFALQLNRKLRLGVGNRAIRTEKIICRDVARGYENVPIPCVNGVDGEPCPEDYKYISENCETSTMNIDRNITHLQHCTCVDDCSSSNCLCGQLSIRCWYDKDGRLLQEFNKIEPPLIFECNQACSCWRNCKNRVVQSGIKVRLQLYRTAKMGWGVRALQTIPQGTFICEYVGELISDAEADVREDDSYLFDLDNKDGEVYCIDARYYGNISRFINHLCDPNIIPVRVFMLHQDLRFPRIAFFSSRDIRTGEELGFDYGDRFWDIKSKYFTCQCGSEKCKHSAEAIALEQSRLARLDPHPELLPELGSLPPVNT

Structure (SMILES)	Potency	activity, negative = inhibition
CCCCc1cc(=O)oc2cc(C)cc(OCC(=O)NC(Cc3ccc(Cl)cc3)C(=O)O)c12 (stereo not given)	inactive	
CCc1ccc(NCc2cc3cc4c(cc3n(CC(=O)Nc3ccc(C)cc3)c2=O)OCO4)cc1	inconclusive: 6.31 µM [inhibitor, partial curve, poor fit]	
Cc1cccc(N2CCN(c3nc4ccccc4n4cnnc34)CC2)c1C	inconclusive: 89.1 µM [inhibitor, single point]	
N#Cc1nc(-c2ccc(F)cc2)oc1N1CCCCC1	active: 12.6 µM	
O=C(Nc1ccc(Cl)cn1)c1cccc(S(=O)(=O)N2CCCCC2)c1	inactive	
CCCSc1nc2c(c(=O)[nH]c(=O)n2C)n1CC(O)COc1ccccc1 (stereo not given)	active: 50.1 µM	
COCCN(C(C)=O)c1nnc(-c2ccccn2)s1	inactive	
Cc1ccc(SCC(=O)Nc2ccc(S(N)(=O)=O)cc2)cc1	inconclusive: 50.1 µM [inhibitor, partial curve, poor fit]	
Cc1cccc2c(Cl)cc(=O)[nH]c12	inactive	
CCN1CCN(C(=O)c2ccc(COc3cccc(Cl)c3)o2)CC1	inconclusive: 79.4 µM [inhibitor, single point]	
CC(=O)Nc1ccc(S(=O)(=O)Nc2ccc3[nH]c(=O)[nH]c3c2)cc1	inactive	
O=[N+]([O-])c1ccc(S(=O)(=O)Nc2ccc(S(=O)(=O)N3CCCC3)cc2)cc1	active: 35.5 µM	
C[C@@H]1CC=C[C@H]2[C@H]1C(=O)N(Cc1ccccc1)[C@H]2c1ccc(F)c(-c2ccc(N(C)C)cc2)c1		inconclusive: -60.7% [inhibitor] [at 12.7 µM]
Oc1ccc(N=Nc2n[nH]c(-c3ccccc3)n2)cc1	active: 3.16 µM	
Oc1c(N=NC(=S)Nc2ccccc2F)c2ccccc2n1Cc1ccc(F)cc1	inconclusive: 2.24 µM [inhibitor, partial curve, poor fit]	
N#C/C(=C\c1ccc(-c2ccc([N+](=O)[O-])cc2Br)o1)C(=O)N1CCN(c2ccccc2)CC1	active: 3.98 µM	
CCn1c(C)nc2cc(C(=O)NNS(=O)(=O)c3c(F)cc(F)c(Cl)c3F)ccc21	active: 39.8 µM	
O=C(OCCO)c1ccccc1O	inactive	
COc1ccc(C(=O)CC(Nc2ccc([N+](=O)[O-])cc2)c2ccc(Cl)cc2)cc1 (stereo not given)	inconclusive: 5.62 µM [inhibitor, partial curve]	
Cc1cc(C)c2oc(C(=O)Nc3c(C(=O)Nc4ccccc4)oc4ccccc34)cc(=O)c2c1	inactive	
CN(C)C(=O)c1ccc(-c2nc(-n3ccnc3)c3ccccc3n2)cc1		inactive: -3.54% [at 0.501 µM]
Cc1ccc(-c2cc(=O)c3cc(C)ccc3[nH]2)cc1	inconclusive: 89.1 µM [inhibitor, single point] and inconclusive: 39.8 µM [inhibitor, partial curve]	
NC(Cc1ccc(Cl)cc1)C(=O)O (stereo not given)	active: 9.47 µM	
CCc1ccc2occ(CC(=O)Nc3sc4c(c3C(=O)OC)CCC4)c2c1	inconclusive: 11.2 µM [inhibitor, partial curve]	
COc1ccc(N2C(=O)[C@@H]3[C@H](C2=O)[C@H]2c4ccccc4C=CN2[C@@H]3C(C)=O)cc1	active: 8.91 µM	

Structure (SMILES)	Potency	activity, negative = inhibition
Nc1c(C(=O)c2ccccc2)oc2ccccc12	inconclusive: 39.8 µM [inhibitor, single point]	
Cc1cc(C)c(S(=O)(=O)N2CCN(C(=O)C(C)Cn3nc(C)nc3C)CC2)c(C)c1 (stereo not given)	inactive	
COc1cc2c(-c3ccccc3Cl)nc3c(c(C)nn3-c3ccccc3)c2cc1OC	inactive	
Cc1nc2c(-c3ccccc3)c(C)nn2c(C)c1CCC(=O)NCc1ccco1	inconclusive: 79.4 µM [inhibitor, partial curve, poor fit]	
CC1C=CC(C)C(C(=O)O)C1C(=O)O (stereo not given)	inconclusive: 2.51 µM [inhibitor, partial curve]	
CCOC(=O)c1ccc2c(c1)N(CC(=O)Nc1ccc(CC)cc1)C(=O)c1ccccc1S2	inactive	
COc1cc(NC(=O)Cn2cnc3sc(C)c(S(=O)(=O)N4CCN(C)CC4)c3c2=O)cc(OC)c1OC	inconclusive: 56.2 µM [inhibitor, partial curve, poor fit]	
CCCCN(CCCNC(=O)C1CCN(S(=O)(=O)CC)CC1)c1ccccc1	active: 7.08 µM	
Cn1c(=O)c2c(nc(SCc3cccnc3)n2Cc2ccccc2)n(C)c1=O	inconclusive: 25.1 µM [inhibitor, single point]	
CCOC(=O)C1=C(O)C(=O)NC(c2ccccc2)=C(OCC)C1	active: 44.7 µM	
CC(C)c1ccc(NC(=O)C2CCCN(S(=O)(=O)c3ccc4[nH]c(=O)ccc4c3)C2)cc1 (stereo not given)	inactive	
N#CCc1nc(CSc2nc3ccccc3s2)cs1		inconclusive: -55.7% [inhibitor]
CN(C)CCCN1c2ccccc2Sc2ccccc21	active: 35.5 µM and active: 44.7 µM	inactive: -26.4% [at 2.33 µM]
COc1ccc(N2CCN(C(=O)c3cn(Cc4ccccc4)nc3-c3cccnc3)CC2)cc1	active: 8.91 µM	
COc1cccc(CNCCSc2nnnn2C)c1OCc1ccc(Cl)cc1	inactive	
Cc1ccccc1NC(=S)NN1CCN(C)CC1		inactive: 45.7% [at 12.7 µM]
COC(=O)[C@H](Cc1ccccc1)NC(=O)N(C)Cc1ccccc1	inconclusive: 39.8 µM [inhibitor, single point]	
CCCCS(=N)(=O)CC[C@H](N)C(=O)O (stereo not given in full)	active: 10 µM	
COc1ccc(NC(=O)c2c[nH]n3c(=O)cc(C4CCN(C(=O)OC(C)(C)C)CC4)nc23)cc1Cl	active: 44.7 µM	
O=C(CCN1C(=O)c2cccc3cccc(c23)C1=O)NCc1ccco1	inconclusive: 7.08 µM [inhibitor, partial curve, poor fit]	
CCOC(=O)c1c(C)c(C)n(Cc2cccc(OC)c2OC)c1C	inconclusive: 100 µM [inhibitor, single point]	
CCC1CCCCN1S(=O)(=O)c1ccc(-n2cnnn2)c(C)c1 (stereo not given)	inactive	
CCOc1cccc(C(=O)NC(=S)Nc2ccc3c(c2)OCCO3)c1	active: 39.8 µM	
COc1cc(Cl)ccc1OCc1cc(C(=O)NC2CCc3ccccc32)no1 (stereo not given)	inconclusive: 79.4 µM [inhibitor, single point]	
CCOC(=O)c1cnc2c(C)cccc2c1Nc1ccc(N2CCOCC2)cc1	active: 28.2 µM	

Structure (SMILES)	Potency	activity, negative = inhibition
CCOC(=O)c1ccc(NC(=O)CC2C(=O)N(c3ccccc3)C(=O)N2C2CCCCC2)cc1 (stereo not given)	inactive	
COc1ccc(CCNC(C(=O)Nc2cc(C)cc(C)c2)c2ccccc2)cc1 (stereo not given)	inactive	
COC(=O)c1ccccc1Nc1ccccc1	inactive	
CCN(Cc1ccccc1)c1ccc(N=Nc2nn(C)c(C)c2[N+](=O)[O-])cc1	active: 10 µM	
CCOc1ccc(-n2c(Cc3cc(=O)[nH]c(=O)[nH]3)nnc2SCC(=O)NC2CCCC2)cc1	inconclusive: 89.1 µM [inhibitor, single point]	
CC(=O)c1ccc(NC(=O)C(C)OC(=O)c2cccc(-n3cnnn3)c2)cc1 (stereo not given)	inconclusive: 89.1 µM [inhibitor, partial curve, poor fit]	
COc1ccc(-n2cc(-c3ccccc3)c3c(NCCc4ccc(OC)c(OC)c4)ncnc32)cc1	inconclusive: 17.8 µM [inhibitor, partial curve, poor fit]	
O=[N+]([O-])c1cc(-n2cccc2)ccc1N1CCOCC1		inconclusive: -99.2% [inhibitor]
CN(C)c1ccc(-c2nnn(Cc3ccccc3Br)n2)cc1	inconclusive: 4.47 µM [inhibitor, single point]	
CCOc1ccc(-c2nonc2NC(=O)COc2ccccc2)cc1	inactive	
CCOC(=O)c1ccc(NC(=O)c2c(NCc3cc(OC)c(OC)cc3OC)sc3c2CCCC3)cc1	active: 7.08 µM	
CCOC(=O)c1cnc(N)nc1C(F)(F)F	inconclusive: 70.8 µM [inhibitor, partial curve, poor fit]	
COc1ccc(/C=C/C(=O)NCCSCc2ccco2)cc1OC	inconclusive: 50.1 µM [inhibitor, partial curve, poor fit]	
O=C(/C=C/c1cccnc1)c1cccc(O)c1	active: 35.5 µM	
O=C(Cc1ccccc1F)N1CCC(c2nc3c(nnn3Cc3cccc(Cl)c3)c(=O)[nH]2)CC1	inactive	
O=c1[nH]cc(C(F)(F)F)cc1NS(=O)(=O)c1ccc([N+](=O)[O-])cc1	inconclusive: 56.2 µM [inhibitor, partial curve, poor fit]	
COc1ccccc1N1CCN(C(=O)c2cc3c(C)nc4ccccc4c3o2)CC1	active: 50.1 µM	
CCc1ccc(N2CC(C(=O)N3CCN(c4ccccn4)CC3)CC2=O)cc1 (stereo not given)	inconclusive: 89.1 µM [inhibitor, partial curve, poor fit]	
CC1CCc2c(sc(NC(=O)c3ccc(-c4ccccc4[N+](=O)[O-])o3)c2C#N)C1 (stereo not given)	inconclusive: 31.6 µM [inhibitor, full curve, poor fit]	
CN(C)C(=O)NC1c2ccccc2-c2ccccc21	inactive	
Cc1ccc2c(c1)C(=O)C(=O)N2CC(=O)Nc1ccccc1NC(=O)c1ccccn1	inconclusive: 89.1 µM [inhibitor, partial curve, poor fit]	
O=C(CN1CCOCC1)Nc1ccc(C2CCCCC2)cc1	inactive	
COc1ccc(CNC(=O)c2cc(C(=O)C3CC3)c[nH]2)cc1	inactive	
O=C(c1ccco1)N1CCN(C(=O)c2snc3ccc(Cl)cc23)CC1	inconclusive: 31.6 µM [inhibitor, single point]	
